Measurements from publication PMC12040169 (PLOS Biology, 2025).
The list shows a part of the results.

Each compound was assayed on T1, C. trachomatis L2/434/Bu expressing GFP (CTL2-GFP). Settings: total inclusion area; 28.5 h, 10 µM; inhibitor.
T1 construct: L2/434/Bu GFP intracellular growth in HeLa cells
Design: species or system HeLa; C. trachomatis total inclusion area by high-content imaging, normalised to DMSO
In short: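 After bulk GFP and resorufin fluorescence reads, cells were fixed, stained with Hoechst and imaged by high-content microscopy. Inclusion area and number (GFP) stood in for chlamydial growth, nuclei count (Hoechst) for host cell viability. MICs were derived as for the bulk readout.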
For `COc1cc(CN2CCN(C(=O)c3cccc(F)c3)CC2)cc(OC)c1O` [CBK074633], the “% of control remaining” value was 67.4281. In the case of `Cc1onc(-c2ccccc2Cl)c1C(=O)Nc1ccc(S(=O)(=O)N2CCC(C)CC2)cc1` [CBK265463], the “% of control remaining” value is reported as 75.6885. For `CCN1CCOC(CNCc2ccc(OCC(N)=O)cc2)C1` (stereo not drawn) [CBK305108], the “% of control remaining” value was 77.7368. In the case of `CC(C)C(=O)Nc1cccc(NC(=O)COc2ccc(Br)cc2)c1` [CBK265211], the “% of control remaining” value is reported as 54.6411. For `Cc1csc(NC(=O)CSc2ccc3nnc(-c4ccccc4)n3n2)n1` [CBK287517], the “% of control remaining” value was 113.022. For `CCn1nc(C)c(-c2cncn2CCCOc2cccc(C)c2)c1C` [CBK281997], the “% of control remaining” value was 117.386. In the case of `Cc1cc(-c2cn3ccnc3c(NC3CC3)n2)cc(C)c1O` [CBK066747], the “% of control remaining” value is reported as 68.8554. In the case of `O=C(O)c1cc(S(=O)(=O)Nc2ccc(F)cc2)c(Cl)cc1Cl` [CBK113685], the “% of control remaining” value is reported as 84.7623. `CN1CCN(CCOC(=O)N2CCSCC2)CC1` [CBK200288] was tested, and the “% of control remaining” value was 94.2134. `CCN1CCN(C(=O)c2ccc3nc(-c4ccccc4)c(-c4ccccc4)nc3c2)CC1` [CBK269090] was tested, and the “% of control remaining” value was 44.6826. With `Cc1csc(Sc2nc3ccccc3nc2C(F)(F)F)n1` [CBK093775] the “% of control remaining” value was 97.8438. For `O=C(CN1CCOCC1)Nc1c2c(nc3ccccc13)N(c1ccccc1)CC2` [CBK111136G], the “% of control remaining” value was 84.9377. With `COc1ccc(Cl)cc1C(=O)O/N=C(\N)Cc1cccc2ccccc12` [CBK266275] the “% of control remaining” value was 97.0877. In the case of `NC1=NNC2=C(c3ccc(F)cc3)NNN12` [CBK093659], the “% of control remaining” value is reported as 97.4454. For `O=C(CCNc1n[nH]c(=O)[nH]c1=O)N/N=C\c1ccccc1F` [CBK263093], the “% of control remaining” value was 102.233. `Cc1ccc(-c2csc3ncnc(NCCCc4n[nH]c(N)c4C#N)c23)cc1` [CBK297100] was tested, and the “% of control remaining” value was 89.0018. In the case of `CC(OC(=O)c1ccc(O)cc1)C(=O)Nc1ccc(Cl)c(Cl)c1` (stereo not drawn) [CBK264281], the “% of control remaining” value is reported as 83.0147. `Cc1ccc(S(=O)(=O)NC2c3cccc4cccc(c34)C2Sc2nnc(N)s2)cc1` (stereo not drawn) [CBK265835] was tested, and the “% of control remaining” value was 118.322. With `CS(=O)(=O)N1CCc2c([nH]c3ccccc23)C12CCN(Cc1ccccc1)C2` (stereo not drawn) [CBK059460] the “% of control remaining” value was 97.8542. `CCCc1ccc(S(=O)(=O)Nc2ccc(C(=O)N(CC)CC)cc2)cc1` [CBK034403] was tested, and the “% of control remaining” value was 85.3267. With `CN(C)CCCNc1oc(/C=C/c2cccs2)nc1C#N` [CBK269317] the “% of control remaining” value was 100.5. `CC(=O)NC[C@H]1CN(c2ccc3c(c2)CCSC3)C(=O)O1` [CBK018505] was tested, and the “% of control remaining” value was 3.2688. For `COc1cccc(CN2CCN(CCc3ccccc3)CC2)c1` [CBK126454], the “% of control remaining” value was 97.5355. `Cc1cccc(OCC2CCCN(C(=O)NCCc3cnn(C)c3)C2)c1` (stereo not drawn) [CBK307358] was tested, and the “% of control remaining” value was 49.631. With `Cc1cccc(Nc2nc(N)nc(CSc3nccn3C)n2)c1` [CBK266105] the “% of control remaining” value was 84.377. For `CCn1cnnc1SCC(=O)Nc1ccc(CN2CCOCC2)cc1` [CBK305072], the “% of control remaining” value was 49.9369. For `O=c1[nH]nc2c(Sc3cccc(F)c3)nccn12` [CBK288508], the “% of control remaining” value was 29.732. With `COc1ccccc1NC(=O)N1C[C@@H]2C[C@H](C1)c1c(-c3cccs3)ccc(=O)n1C2` [CBK289191] the “% of control remaining” value was 72.3683. `CN(C)C(=S)Oc1ccc2[nH]c3c(c2c1)CCNC31CCN(CCOc2ccccc2)C1` (stereo not drawn) [CBK105748] was tested, and the “% of control remaining” value was 63.9944. For `CSc1nc2ccc(S(=O)(=O)N3CCCC3)cc2s1` [CBK268400], the “% of control remaining” value was 90.3378. With `CC(Cc1ccccn1)NC(=O)c1cc(-c2ccccc2F)no1` (stereo not drawn) [CBK281421] the “% of control remaining” value was 98.6578. For `CCCCc1cc(=O)oc2cc(OCC(=O)O)ccc12` [CBK264205], the “% of control remaining” value was 99.3314. In the case of `COc1ccc(C(C)C)cc1-c1cnc(N)c(N2CCOCC2)n1` [CBK063384], the “% of control remaining” value is reported as 92.2756. With `O=c1c2cn[nH]c2nc(SCc2ccc3c(c2)OCCO3)n1-c1ccccc1` [CBK266593] the “% of control remaining” value was 103.567. For `CC(=O)N1c2ccccc2C(C)(c2ccc(Br)cc2)CC1(C)C` (stereo not drawn) [CBK026461], the “% of control remaining” value was 50.9016. `OC1(Cn2cnc3ccccc32)CCN(Cc2ccc(F)cc2)CC1` [CBK284661] was tested, and the “% of control remaining” value was 102.07. `CNC(=O)CSc1nccc(C(F)(F)F)n1` [CBK107759] was tested, and the “% of control remaining” value was 95.9701. With `O=C(CCc1cccnc1)N1CCCCC1c1nc2cc(F)ccc2[nH]1` (stereo not drawn) [CBK291106] the “% of control remaining” value was 91.7098. For `O=C(Cc1cccnc1)N1CCC(Cc2ccccc2)CC1` [CBK200183], the “% of control remaining” value was 119.584. For `Cc1ccccc1Cc1cccc(C2CCN(C(=O)Cc3ccccc3)CC2)n1` [CBK285625], the “% of control remaining” value was 105.142. `CC(C)(CN)CN(Cc1ccccc1C(F)(F)F)C(=O)NCc1ccc(F)cc1` [CBK002471C] was tested, and the “% of control remaining” value was 76.8564. In the case of `COC(=O)CCC1(C)CN(C)CCC1=O` (stereo not drawn) [CBK028494], the “% of control remaining” value is reported as 85.3785. With `O=C(O)c1nccnc1C(=O)N1CCC(O)(c2ccc(Cl)cc2)CC1` [CBK286621] the “% of control remaining” value was 77.8602. `Cc1nn(C)c2nc(NCc3ccc(C(=O)N4CCCCC4)cc3)sc12` [CBK306826] was tested, and the “% of control remaining” value was 27.0349. For `CC1=C[C@@H](CNC(=O)c2ccncc2)[C@H](C(C)C)C[C@H]1CC(=O)N1CCOCC1` [CBK289052], the “% of control remaining” value was 104.083. With `Cn1c(SCC(=O)c2ccccc2)nnc1-c1ccc(NC(=O)c2ccccc2Cl)cc1` [CBK264357] the “% of control remaining” value was 109.518. For `O=S(=O)(CC(F)(F)F)Nc1cccc(-c2nnn[nH]2)c1` [CBK154272], the “% of control remaining” value was 77.4523. `CCCCCCN1CCC2CN(CCCC(=O)c3ccc(F)cc3)CCN2C1=O` (stereo not drawn) [CBK024890C] was tested, and the “% of control remaining” value was 54.9883. `Cc1csc(-c2cn3ccnc3c(N(C)CCN(C)C)n2)c1` [CBK066553] was tested, and the “% of control remaining” value was 130.474. With `c1ccc(-c2nc(C3CC3)n3ccccc23)cc1` [CBK149257] the “% of control remaining” value was 93.8378. In the case of `Cc1ccc(S(N)(=O)=O)cc1C(=O)OCC(=O)c1ccccc1` [CBK264588], the “% of control remaining” value is reported as 85.1824. In the case of `O=C1NC2(CCOCC2)C(=O)N1Cc1ncc(-c2cccs2)o1` [CBK304187], the “% of control remaining” value is reported as 56.1781. For `C=C(C)Cn1c(=O)nc(N)c2c3c(sc21)CCC3` [CBK287986], the “% of control remaining” value was 104.123. With `c1ccc(-c2nnc(SCc3nnc(-c4ccccc4)o3)[nH]2)cc1` [CBK270003] the “% of control remaining” value was 100.937. In the case of `COCc1cccc(-c2ncc(OCCN3CCCC3=O)nc2N)c1` [CBK145110], the “% of control remaining” value is reported as 96.3656. For `Cc1cc(C(F)(F)F)n2ncc(C(=O)N3CCCC3c3ccco3)c2n1` (stereo not drawn) [CBK306557], the “% of control remaining” value was 72.8598. For `COc1cccc(Cc2cccc(C3CCN(C(=O)Cc4ccccc4)CC3)n2)c1` [CBK286147], the “% of control remaining” value was 70.5618. In the case of `Cn1c(O)c(CCNc2cc(C3CCOC3)ncn2)cnc1=O` (stereo not drawn) [CBK307648], the “% of control remaining” value is reported as 64.4911. `O=C1CN(C(=O)c2cc(-c3ccncc3)nc3ccccc23)CCN1` [CBK304370] was tested, and the “% of control remaining” value was 51.8854. With `Cc1cc(/C=C(/C#N)c2ccc([N+](=O)[O-])cc2)c(C)n1-c1ccc(S(N)(=O)=O)cc1` [CBK266737] the “% of control remaining” value was 104.925. `CN(Cc1ccc(-c2ccc(CO)cc2)nc1)C1CCN(C(=O)OC(C)(C)C)CC1` [CBK173453] was tested, and the “% of control remaining” value was 59.1836. With `CC(C)(C)C(=O)N1CCc2c([nH]c3ccccc23)C12CCNC2` (stereo not drawn) [CBK059462] the “% of control remaining” value was 100.48. `CC1(C)Cc2c(sc(NC(=O)c3ccccc3Cl)c2C(=O)O)CO1` [CBK126806] was tested, and the “% of control remaining” value was 86.9819. `O=C(Cn1c(-c2ccco2)cc2cccnc21)N1CCCC1` [CBK282683] was tested, and the “% of control remaining” value was 104.765. In the case of `Cc1nc(CN2CCN(c3ccc4nnc(C(F)(F)F)n4n3)CC2)cs1` [CBK239750], the “% of control remaining” value is reported as 47.0437. In the case of `OCCOc1ncnc2ccccc12` [CBK001412], the “% of control remaining” value is reported as 98.6308. With `COc1cccc2ncn(CCCc3c(C)n[nH]c3C)c(=O)c12` [CBK307153] the “% of control remaining” value was 90.9518. With `CC(C)c1ccc(NS(=O)(=O)c2ccc(F)c(C(=O)O)c2)cc1` [CBK297940] the “% of control remaining” value was 91.2692. For `Cc1nc(S(=O)(=O)N2CCOC3(CCCC3)C2)cn1C` [CBK304834], the “% of control remaining” value was 47.4235. For `Fc1ccc(CCN2CCC(c3nc(-c4cccnc4)no3)CC2)cc1` [CBK051464], the “% of control remaining” value was 67.679. For `O=C(O)c1ccc(S(=O)(=O)NCc2ccccc2)cc1` [CBK262093], the “% of control remaining” value was 104.627. In the case of `Cc1cccc(OCC(=O)NC(=S)Nc2cccc(C(=O)O)c2C)c1` [CBK265067], the “% of control remaining” value is reported as 80.9091. With `CN(C)c1ccc(C2C(C(=O)c3ccccc3)=C(O)C(=O)N2CCCC(=O)O)cc1` (stereo not drawn) [CBK263393] the “% of control remaining” value was 107.056. In the case of `CC(c1ccc(Cl)cc1Cl)N(C)C(=O)c1ccc(S(C)(=O)=O)cc1` (stereo not drawn) [CBK242418], the “% of control remaining” value is reported as 85.3045. `C=C(C)CN1CCN(C(=O)c2ccnc3ccc(Cl)cc23)CC1` [CBK282617] was tested, and the “% of control remaining” value was 107.848. With `NC(=O)c1ccccc1NC(=O)CCN1C(=O)c2cccc([N+](=O)[O-])c2C1=O` [CBK263118] the “% of control remaining” value was 83.2894. With `Nc1ccccc1SC(CC(=O)c1ccccc1)c1ccc2c(c1)OCO2` (stereo not drawn) [CBK074823] the “% of control remaining” value was 76.2169. `CCn1c(C(C)Oc2ccc(Cl)cc2)n[nH]c1=S` (stereo not drawn) [CBK015099] was tested, and the “% of control remaining” value was 67.9426. With `CC1(C)NC(=O)N(CC(O)CNC23CC4CC(CC(C4)C2)C3)C1=O` (stereo not drawn) [CBK264823] the “% of control remaining” value was 106.971. `Cc1c(-c2ccc(Cl)cc2Cl)nc2ccccc2c1C(=O)NCCCc1ccccc1` [CBK262635] was tested, and the “% of control remaining” value was 89.678. For `COC(=O)c1cc(C#N)c(=O)n(CC(O)COc2c(C)cccc2C)c1` (stereo not drawn) [CBK305709], the “% of control remaining” value was 77.764.
